Data reported in a collection of fitness landscapes (doi:10.1016/j.celrep.2020.107928).
The full ranking holds about 81,000 sequences; the median of “one-hybrid fitness for binding NBS DNA” is about -0.1, and the highest 2% start at about 0.36. This is one part of the list.

B1: Caulobacter ParB omega fusion; a variant is named by its letters at X, in order, B8GW30 (parent)
chain: MESVVVGEPGMSEGRRGLGRGLSALLGEVDAAPAQAPGEQLGGSREAPIEILQRNPDQPRRTFREEDLEDLSNSIREKGVLQPILVRPSPDTAGEYQIVAGERAWRAAQRAGLKTVPIMVRELDDLAVLEIGIIENVQRADLNVLEEALSYKVLMEKFERTQENIAQTIGKSXSHVANXMRLLXLPDEVQSYLVSGELTAXHARAIAAAADPVALAKQIIEGGLSVRETEALARKAPNLSAGKSKGGRPPRVKDTDTQALESDLSSVLGLDVSIDHRGSTGTLTITYATLEQLDDLCNRLTRGI

Variants of: B1
Assay: one-hybrid fitness for binding NBS DNA (the Noc-binding site; scaled: cognate 1, non-cognate 0); higher = stronger binding
Conditions: with NBS DNA site
Outline: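 Fitness is the rescaled log change in variant-to-wild-type read ratio, measured by Illumina sequencing of plasmids before and after bacterial one-hybrid selection. The scale puts cognate at 1 and non-cognate at 0. Selection of Caulobacter ParB libraries, four specificity codons randomised, took place in E. coli USO with a HIS3 reporter, site 19 bp from the promoter, over 48 hours at 37°C on M9-minus-histidine with 0.1 mM IPTG and 5 mM 3-AT.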

one-hybrid fitness for binding NBS DNA, 0.644:
QYRS

one-hybrid fitness for binding NBS DNA, 0.369:
QYKM

one-hybrid fitness for binding NBS DNA, 0.209:
QRWI

one-hybrid fitness for binding NBS DNA, 0.247:
QNHR

one-hybrid fitness for binding NBS DNA, ≤ 0.2:
PMGQ
PPMW
RLPF
AWSS
DELC
CIFS
LMMR
VVSL
AVGR
YEGT
LYMG
SYRG
HMAC
KPSG
SDSQ
PVFG
SLML
MGPG
MRAA
RVVM
NQME
NYKV
DLVW
VTRG
HWPT
YFAA
LMKK
MNYW
IENR
NRQP
RVVA
TSSW
AVEC
ARKY
FACY
HRPF
PHDG
ENHK
RDFG
MFTW
QFFY
VHQV
CDRT
APCY
LPMV
NAAH
RSAC
SRHG
PYRE
ISSF
FNPT
ERIS
RMIW
GGTT
GAYK
CSWS
KEMV
GNNG
MHIS
NELP
WNQR
KEDS
YSEE
RVIH
PFGS
RSMF
QRMP
PKRM
CSSR
GRFT
YVSY
VRTC
SSNG
TVQF
RLVF
RVLC
IHTV
SPCA
CTRY
QGQI
CLSY
PYFS
SNIV
VTEI
DTIS
WAMW
WGQR

one-hybrid fitness for binding NBS DNA, 0.537:
KRGT

one-hybrid fitness for binding NBS DNA, 0.304:
QLVQ

one-hybrid fitness for binding NBS DNA, 0.255:
HRNR

one-hybrid fitness for binding NBS DNA, 0.331:
RFNS

one-hybrid fitness for binding NBS DNA, 0.261:
SSHR

one-hybrid fitness for binding NBS DNA, 0.203:
ISRR

one-hybrid fitness for binding NBS DNA, 0.471:
RYHR
